From paper PMC8321558
Results are given in words; binding and its absence hold for the method and conditions named. Some entries that bind do so weakly or less than the wild type.

By UniProt entry, the sequences of proteins in these tests, tags left out.
UniProt P0AG24: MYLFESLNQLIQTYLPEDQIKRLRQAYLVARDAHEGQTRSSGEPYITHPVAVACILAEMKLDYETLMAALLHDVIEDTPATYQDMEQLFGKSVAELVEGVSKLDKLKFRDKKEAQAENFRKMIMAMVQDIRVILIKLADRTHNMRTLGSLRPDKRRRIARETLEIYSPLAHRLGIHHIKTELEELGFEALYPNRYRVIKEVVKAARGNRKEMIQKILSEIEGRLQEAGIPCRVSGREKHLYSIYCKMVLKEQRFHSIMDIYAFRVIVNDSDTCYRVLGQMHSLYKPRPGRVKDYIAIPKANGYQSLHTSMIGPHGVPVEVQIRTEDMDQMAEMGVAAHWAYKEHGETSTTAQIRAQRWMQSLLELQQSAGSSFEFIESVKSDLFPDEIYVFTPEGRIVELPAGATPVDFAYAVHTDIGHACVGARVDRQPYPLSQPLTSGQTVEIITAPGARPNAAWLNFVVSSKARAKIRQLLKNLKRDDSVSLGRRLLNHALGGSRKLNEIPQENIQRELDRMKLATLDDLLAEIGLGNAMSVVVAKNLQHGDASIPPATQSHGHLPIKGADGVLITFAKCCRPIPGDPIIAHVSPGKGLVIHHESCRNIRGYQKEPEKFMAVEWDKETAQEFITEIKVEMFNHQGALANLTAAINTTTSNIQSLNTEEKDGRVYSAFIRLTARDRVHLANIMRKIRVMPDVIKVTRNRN

T1: T25-RelA^1-663 (Escherichia coli) (UniProt P0AG20)
T1 sequence: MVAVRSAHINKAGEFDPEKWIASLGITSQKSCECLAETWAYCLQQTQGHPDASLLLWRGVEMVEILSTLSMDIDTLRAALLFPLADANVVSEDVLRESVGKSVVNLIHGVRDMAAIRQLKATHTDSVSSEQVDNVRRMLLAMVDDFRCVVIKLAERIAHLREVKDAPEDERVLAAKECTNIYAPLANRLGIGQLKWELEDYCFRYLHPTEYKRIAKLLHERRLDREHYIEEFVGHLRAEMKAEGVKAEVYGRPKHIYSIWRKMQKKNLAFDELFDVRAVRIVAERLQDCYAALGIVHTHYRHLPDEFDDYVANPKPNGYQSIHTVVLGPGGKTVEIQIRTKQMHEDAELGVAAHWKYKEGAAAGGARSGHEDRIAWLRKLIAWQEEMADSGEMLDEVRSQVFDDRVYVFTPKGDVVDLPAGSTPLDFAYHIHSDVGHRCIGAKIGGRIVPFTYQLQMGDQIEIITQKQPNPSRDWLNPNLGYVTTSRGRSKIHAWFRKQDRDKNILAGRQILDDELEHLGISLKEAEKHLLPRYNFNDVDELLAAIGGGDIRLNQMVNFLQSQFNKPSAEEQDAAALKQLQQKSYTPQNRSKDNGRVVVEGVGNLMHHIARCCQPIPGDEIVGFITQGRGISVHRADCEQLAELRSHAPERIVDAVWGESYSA

T2: T25-RelA^181-744 (Escherichia coli) (UniProt P0AG20)
T2 sequence: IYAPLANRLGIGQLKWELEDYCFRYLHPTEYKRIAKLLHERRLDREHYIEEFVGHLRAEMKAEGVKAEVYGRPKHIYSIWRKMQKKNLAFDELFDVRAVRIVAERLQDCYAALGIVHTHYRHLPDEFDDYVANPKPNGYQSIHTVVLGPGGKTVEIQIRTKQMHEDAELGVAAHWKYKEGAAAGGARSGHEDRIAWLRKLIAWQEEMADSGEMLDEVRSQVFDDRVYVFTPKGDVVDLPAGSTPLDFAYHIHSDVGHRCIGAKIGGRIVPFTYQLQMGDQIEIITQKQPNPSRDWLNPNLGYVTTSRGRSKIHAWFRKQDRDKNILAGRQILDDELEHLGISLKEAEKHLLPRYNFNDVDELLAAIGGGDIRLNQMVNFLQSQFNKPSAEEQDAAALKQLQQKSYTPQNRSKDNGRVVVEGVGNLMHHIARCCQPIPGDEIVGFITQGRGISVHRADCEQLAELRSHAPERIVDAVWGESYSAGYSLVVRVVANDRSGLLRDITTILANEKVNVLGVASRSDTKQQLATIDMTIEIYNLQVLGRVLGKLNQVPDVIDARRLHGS

T3: T25-RelA^1-181 (Escherichia coli) (UniProt P0AG20)
T3 sequence: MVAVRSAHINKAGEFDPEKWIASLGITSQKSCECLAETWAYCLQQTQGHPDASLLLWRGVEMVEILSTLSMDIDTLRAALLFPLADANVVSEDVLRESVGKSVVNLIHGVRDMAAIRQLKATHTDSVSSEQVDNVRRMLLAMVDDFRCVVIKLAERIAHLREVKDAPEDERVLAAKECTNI

T4: T25-RelA^1-580 (Escherichia coli) (UniProt P0AG20)
T4 sequence: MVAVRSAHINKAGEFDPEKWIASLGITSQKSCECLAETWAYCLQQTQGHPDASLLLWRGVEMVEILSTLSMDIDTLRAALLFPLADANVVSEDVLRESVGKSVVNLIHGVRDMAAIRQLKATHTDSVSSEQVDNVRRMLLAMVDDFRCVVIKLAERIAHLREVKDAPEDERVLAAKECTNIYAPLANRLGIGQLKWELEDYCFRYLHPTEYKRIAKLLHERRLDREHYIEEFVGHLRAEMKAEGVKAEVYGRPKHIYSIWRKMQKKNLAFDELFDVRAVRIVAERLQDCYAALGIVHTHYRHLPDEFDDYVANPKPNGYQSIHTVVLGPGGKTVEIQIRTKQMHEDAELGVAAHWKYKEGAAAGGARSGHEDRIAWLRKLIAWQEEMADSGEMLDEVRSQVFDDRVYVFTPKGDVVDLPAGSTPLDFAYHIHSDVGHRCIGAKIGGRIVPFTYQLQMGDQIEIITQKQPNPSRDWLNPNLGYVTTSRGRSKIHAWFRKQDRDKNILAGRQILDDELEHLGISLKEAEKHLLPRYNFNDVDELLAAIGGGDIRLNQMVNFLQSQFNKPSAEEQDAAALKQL

T5: T25-NirB (Escherichia coli) (UniProt P08201)
T5 sequence: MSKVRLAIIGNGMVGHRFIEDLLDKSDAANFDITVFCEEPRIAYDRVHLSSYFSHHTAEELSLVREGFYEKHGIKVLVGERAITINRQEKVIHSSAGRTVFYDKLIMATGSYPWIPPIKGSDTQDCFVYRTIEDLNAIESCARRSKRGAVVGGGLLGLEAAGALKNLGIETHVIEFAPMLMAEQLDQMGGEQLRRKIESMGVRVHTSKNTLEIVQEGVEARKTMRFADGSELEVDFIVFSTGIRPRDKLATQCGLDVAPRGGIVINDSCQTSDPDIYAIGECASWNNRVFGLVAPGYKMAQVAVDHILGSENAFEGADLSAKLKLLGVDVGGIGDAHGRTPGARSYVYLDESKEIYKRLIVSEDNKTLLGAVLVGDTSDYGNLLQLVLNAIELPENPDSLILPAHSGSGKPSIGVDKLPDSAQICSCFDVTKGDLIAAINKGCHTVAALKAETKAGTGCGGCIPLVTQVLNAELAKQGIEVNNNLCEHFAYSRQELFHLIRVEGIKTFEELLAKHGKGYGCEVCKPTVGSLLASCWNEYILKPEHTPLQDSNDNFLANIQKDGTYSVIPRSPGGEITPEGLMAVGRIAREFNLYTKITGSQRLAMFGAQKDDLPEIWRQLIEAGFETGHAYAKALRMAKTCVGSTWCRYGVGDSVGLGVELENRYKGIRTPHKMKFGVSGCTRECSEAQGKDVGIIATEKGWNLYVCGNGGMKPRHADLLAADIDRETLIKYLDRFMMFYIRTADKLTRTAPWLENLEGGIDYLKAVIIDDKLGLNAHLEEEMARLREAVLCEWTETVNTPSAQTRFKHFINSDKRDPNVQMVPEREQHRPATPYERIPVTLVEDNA

T6: T25-RelA^1-470 (Escherichia coli) (UniProt P0AG20)
T6 sequence: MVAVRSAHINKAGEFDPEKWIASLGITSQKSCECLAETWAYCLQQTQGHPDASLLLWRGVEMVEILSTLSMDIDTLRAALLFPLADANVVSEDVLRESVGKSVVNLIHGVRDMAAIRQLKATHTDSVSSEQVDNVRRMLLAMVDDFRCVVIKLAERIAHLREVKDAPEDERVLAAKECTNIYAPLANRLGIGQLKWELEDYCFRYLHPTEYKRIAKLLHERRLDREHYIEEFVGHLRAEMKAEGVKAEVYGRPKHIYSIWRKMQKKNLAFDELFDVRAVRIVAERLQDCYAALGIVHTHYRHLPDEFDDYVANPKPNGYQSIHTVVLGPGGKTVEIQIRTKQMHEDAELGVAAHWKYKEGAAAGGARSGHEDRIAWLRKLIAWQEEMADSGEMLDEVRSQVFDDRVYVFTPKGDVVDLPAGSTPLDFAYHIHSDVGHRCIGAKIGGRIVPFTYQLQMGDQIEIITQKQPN


How the values were obtained:
Assay in all cases: two-hybrid; bacterial two-hybrid (T18 and T25 domains of B. pertussis adenylate cyclase; pUT18C and pKT25) in cya-deficient E. coli BTH101, 30°C; X-Gal plates and β-galactosidase activity
[1] = molecular target: T1, T25-RelA^1-663 (Escherichia coli)
[2] = molecular target: T2, T25-RelA^181-744 (Escherichia coli)
[3] = molecular target: T3, T25-RelA^1-181 (Escherichia coli)
[4] = molecular target: T4, T25-RelA^1-580 (Escherichia coli)
[5] = molecular target: T5, T25-NirB (Escherichia coli)
[6] = molecular target: T25-SpoT (Escherichia coli) (UniProt P0AG24)
[7] = molecular target: T6, T25-RelA^1-470 (Escherichia coli)

| binding [1] | binding [2] | binding [3] | binding [4] | binding [5] | binding [6] | binding [7] | Binder |
| --- | --- | --- | --- | --- | --- | --- | --- |
| binds | no binding | no binding | binds | binds | no binding | binds | T18-NirD (protein, UniProt P0A9I8 1-108) MSQWKDICKIDDILPETGVCALLGDEQVAIFRPYHSDQVFAISNIDPFFESSVLSRGLIAEHQGELWVASPLKKQRFRLSDGLCMEDEQFSVKHYEARVKDGVVQLRG |
|  |  |  |  | binds |  |  | T18-NirD^E50K (protein, UniProt P0A9I8 1-108) MSQWKDICKIDDILPETGVCALLGDEQVAIFRPYHSDQVFAISNIDPFFKSSVLSRGLIAEHQGELWVASPLKKQRFRLSDGLCMEDEQFSVKHYEARVKDGVVQLRG |
